The source of these data is PMC6212790.

The other results are listed elsewhere or left out. At the low end of the ranking the order means little.

The target in this experiment is T1, GST-Rok-C97-191 (UniProt O34857).
T1 sequence: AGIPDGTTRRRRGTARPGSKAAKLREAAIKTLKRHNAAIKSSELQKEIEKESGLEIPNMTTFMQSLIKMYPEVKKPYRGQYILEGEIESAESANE
The experiment is described as follows: protein binding microarray.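 Note: rank score from −0.5 (least bound) to 0.5 (best bound).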 To be noted: Rok is a gene silencer of Bacillus subtilis; high values mean tight binding; most listed sequences are background and not binding sites; double strand, one strand shown.
Sequence CGAGTTTC gave a binding signal of 0.049 E-score.

AACTTAGA registered a binding signal of 0.146 E-score.

As to CAGACGCG, the binding signal was -0.319 E-score.

As to AGCAGGAT, the binding signal is -0.00135 E-score.

Turning to ATATCCCG, the binding signal is -0.0416 E-score.

GTGTATAA had a binding signal of 0.21 E-score.

Sequence AGGTCTAG displayed a binding signal of -0.109 E-score.

In turn, GATGTAGC yielded a binding signal of 0.126 E-score.

On to CCATAAAG, for which the binding signal is -0.0985 E-score.

GTGACCTA came in with a binding signal of 0.00217 E-score.

CCGCATCC returned a binding signal of -0.17 E-score.

For CGTGAGGA, the binding signal was -0.135 E-score.

Regarding CCACGGCG, the binding signal was -0.177 E-score.

Take ATTTAGAA: the binding signal turned out to be 0.127 E-score.

In turn, AACCGCTT gave a binding signal of -0.109 E-score.

Sequence AAGCAGAT came in with a binding signal of 0.0834 E-score.

Turning to CCTGAGAG, the binding signal was -0.163 E-score.

Regarding GGTTAACC, the binding signal was determined as 0.109 E-score.

On to CCGTCTAC, for which the binding signal is -0.0475 E-score.

AAATTGTC gave a binding signal of 0.107 E-score.

CCCGTCGC registered a binding signal of -0.273 E-score.

In turn, GTTGCGGA gave a binding signal of 0.0514 E-score.

The sequence ATTAGACC displayed a binding signal of 0.0369 E-score.

CCTCGGGA returned a binding signal of -0.14 E-score.

As to CTTGTTCA, the binding signal was determined as 0.0304 E-score.

Consider AACATTAG, for which the binding signal was 0.196 E-score.

In turn, CGAGCATA showed a binding signal of 0.059 E-score.

Sequence CGTGAGGC returned a binding signal of -0.256 E-score.

ACGCACAA: the binding signal is -0.115 E-score.

On to AACTAGGA, for which the binding signal was 0.154 E-score.

For CACCCAAG, the binding signal is -0.17 E-score.

On to AGTATACG, for which the binding signal was 0.219 E-score.

AGTCAGAA: the binding signal is 0.0656 E-score.

Consider GTATGATA, for which the binding signal stood at 0.302 E-score.

ACCGGATC yielded a binding signal of -0.0169 E-score.

The sequence CGCCGCAG yielded a binding signal of -0.246 E-score.

In turn, CATAGCGA yielded a binding signal of 0.0301 E-score.

In the case of GACGTCTA, the binding signal was 0.207 E-score.

The sequence GGCTTTAC gave a binding signal of -0.0797 E-score.

Consider CAGAGCGC, for which the binding signal is -0.0288 E-score.

The sequence ATTGCTGG yielded a binding signal of 0.137 E-score.

Sequence AAGGGCCA had a binding signal of -0.136 E-score.

Turning to CCAGGTTC, the binding signal was -0.286 E-score.

Sequence ATACTTTC registered a binding signal of 0.238 E-score.

GGCCACAC registered a binding signal of -0.181 E-score.

On to CTGGACAA, for which the binding signal was -0.166 E-score.

Regarding AAATAATC, the binding signal was 0.188 E-score.

In turn, ACGAGCCG displayed a binding signal of -0.253 E-score.

CATGGGCA gave a binding signal of -0.053 E-score.

As to ATGGCGTA, the binding signal turned out to be 0.0101 E-score.

Sequence AACGGAGG gave a binding signal of -0.102 E-score.

In the case of AGTCACAG, the binding signal is -0.0998 E-score.

TGAAATAA had a binding signal of 0.116 E-score.

For the sequence AAAGCAAG, the binding signal was -0.0178 E-score.

CAAGCCCA gave a binding signal of -0.0345 E-score.

In turn, ATCTATTA showed a binding signal of 0.353 E-score.

Take AAACACTG: the binding signal is -0.111 E-score.

Take GCGTGCAA: the binding signal was -0.134 E-score.

In turn, AGAGGCAT showed a binding signal of 0.0046 E-score.

Sequence AAAGGGAT had a binding signal of -0.0928 E-score.

Sequence ATAATCAT displayed a binding signal of 0.152 E-score.

Regarding CAGGACCA, the binding signal was -0.177 E-score.

Turning to ACGTAGAA, the binding signal is 0.162 E-score.

Take CGAGCCGA: the binding signal was -0.177 E-score.

The sequence CTCGGGGA yielded a binding signal of -0.344 E-score.

Regarding GGGCTGGA, the binding signal is -0.0859 E-score.

With ACTTCGGC, the binding signal was -0.124 E-score.

Sequence GATCCAAC gave a binding signal of -0.164 E-score.

GTCATGTA registered a binding signal of 0.182 E-score.

The sequence CGCGTTCC gave a binding signal of -0.0762 E-score.

As for ATACGATG, the binding signal worked out at 0.147 E-score.

Turning to ACAGACAT, the binding signal came out at 0.0121 E-score.

As for ACGCCGCG, the binding signal was -0.137 E-score.

The sequence CTGTCGCC displayed a binding signal of -0.168 E-score.

On to AGTAAGGA, for which the binding signal turned out to be 0.0919 E-score.

For CGCTCAAG, the binding signal was -0.0375 E-score.

As to CAAGTAAC, the binding signal was -0.056 E-score.

For the sequence ATTGTAGG, the binding signal worked out at 0.0264 E-score.

As to AAGGTCAA, the binding signal is -0.11 E-score.

Sequence ATGCGGGG gave a binding signal of -0.315 E-score.

On to AGCCGCTG, for which the binding signal is -0.194 E-score.

The sequence CATCGGGA gave a binding signal of -0.0177 E-score.

Regarding TCATCCGA, the binding signal was -0.094 E-score.

Consider CAACTACC, for which the binding signal was 0.271 E-score.

CCGCTTAG registered a binding signal of -0.103 E-score.

Sequence ACCCAAAT came in with a binding signal of -0.00366 E-score.

Consider CTCAGTCC, for which the binding signal was -0.232 E-score.

Take CCGCCAAC: the binding signal was -0.374 E-score.

On to CCCGTTTA, for which the binding signal is -0.0976 E-score.

The sequence GCGACCAC returned a binding signal of -0.0405 E-score.

GGGAAGGA registered a binding signal of -0.18 E-score.

For the sequence ACTTTGGG, the binding signal was found to be 0.065 E-score.

The sequence ATGAGCCC had a binding signal of -0.262 E-score.

Regarding AGGCGGTC, the binding signal is -0.357 E-score.

Sequence TATTGACA returned a binding signal of 0.0261 E-score.

Sequence AGCAGTGG came in with a binding signal of -0.264 E-score.

For the sequence GGGCCCAC, the binding signal was -0.356 E-score.

Take TAGTAGAA: the binding signal was 0.433 E-score.

As for ACATCCTG, the binding signal is -0.137 E-score.

ACTTATCG yielded a binding signal of 0.173 E-score.

With CTACAAAG, the binding signal came out at 0.0557 E-score.

In the case of ACTCCCCG, the binding signal was -0.0535 E-score.

Sequence ACACACGC showed a binding signal of -0.0942 E-score.

The sequence CTCGGATA came in with a binding signal of 0.101 E-score.

For the sequence TCCGTAAA, the binding signal is -0.0596 E-score.

On to CTCTTCCA, for which the binding signal was -0.287 E-score.

The sequence GATATGGA had a binding signal of 0.0314 E-score.

On to ATGTCGTC, for which the binding signal was -0.229 E-score.

As for AGGGAAAT, the binding signal came to 0.0705 E-score.

ACCATTGA: the binding signal turned out to be 0.125 E-score.

GACAAGCA yielded a binding signal of -0.109 E-score.

CTATGTGC gave a binding signal of -0.0872 E-score.

CTTCCTGC gave a binding signal of -0.225 E-score.

With ACGTTACA, the binding signal was found to be 0.23 E-score.

Consider CTATCTCA, for which the binding signal was 0.178 E-score.

CTTTATTA displayed a binding signal of 0.159 E-score.

Regarding AAATCAAT, the binding signal was determined as 0.124 E-score.

The sequence ATATTAAG gave a binding signal of 0.297 E-score.

CACTCAAA: the binding signal was -0.0724 E-score.

As for CAACGACA, the binding signal is 0.109 E-score.

For the sequence CTTACTTA, the binding signal was 0.189 E-score.

AACATGCA showed a binding signal of 0.147 E-score.

Sequence TGCGATAA displayed a binding signal of 0.116 E-score.

CATAGTGG came in with a binding signal of -0.018 E-score.

CGTTTAAG yielded a binding signal of -0.082 E-score.

Sequence TATCCGGA yielded a binding signal of -0.0785 E-score.

Turning to CGTAAGGA, the binding signal was -0.0918 E-score.

Regarding ATCTCGAA, the binding signal stood at 0.0799 E-score.

AGATGAAA displayed a binding signal of -0.0885 E-score.

In the case of TATTATGA, the binding signal came out at 0.181 E-score.

With CAAGCTCA, the binding signal was -0.0409 E-score.

Consider CACGGTAA, for which the binding signal is 0.131 E-score.

CTACCAAA: the binding signal stood at 0.247 E-score.

In turn, GCGTACCA displayed a binding signal of -0.205 E-score.

Sequence CATTGGCA registered a binding signal of -0.218 E-score.

In turn, CGGGCGTC returned a binding signal of -0.296 E-score.

Take GATGAAGA: the binding signal is -0.0669 E-score.

GCCCCTAC came in with a binding signal of -0.105 E-score.

For ATAATTGC, the binding signal came to 0.26 E-score.

In turn, AGCGCTAG showed a binding signal of 0.154 E-score.

The sequence CTGGATTA returned a binding signal of -0.0333 E-score.

Take ATCGAGGA: the binding signal was -0.0332 E-score.

The sequence CGCCAAAG yielded a binding signal of -0.161 E-score.

Take AACGTATT: the binding signal is 0.254 E-score.

Turning to CCACATGG, the binding signal was -0.118 E-score.

As to GCACCCGC, the binding signal is -0.185 E-score.

In the case of ATAGCTTA, the binding signal turned out to be 0.169 E-score.

As for ACCGGCAC, the binding signal is -0.121 E-score.

The sequence ACGCCGGA returned a binding signal of -0.187 E-score.

Turning to ATACTTAA, the binding signal was 0.00261 E-score.

Regarding ATCCGAGG, the binding signal was -0.035 E-score.

CGTTTCAG came in with a binding signal of -0.0327 E-score.

AAAGCTTA registered a binding signal of 0.0996 E-score.

AAAAGTTA yielded a binding signal of 0.233 E-score.

In the case of AAATTTAC, the binding signal came to 0.38 E-score.

With TAGTAAAA, the binding signal came out at 0.37 E-score.

Take GTTACACA: the binding signal was found to be 0.142 E-score.

On to ATGGACCG, for which the binding signal was -0.194 E-score.

AGGATCTA registered a binding signal of 0.183 E-score.

As to GGCAACAC, the binding signal was -0.176 E-score.

Sequence GCGCCAGA had a binding signal of -0.342 E-score.

On to CATCCTCC, for which the binding signal was -0.302 E-score.

On to ACCACAGA, for which the binding signal was found to be 0.0469 E-score.

In turn, GAGATTGA came in with a binding signal of -0.0176 E-score.

The sequence ACGGGCGC had a binding signal of -0.156 E-score.

For the sequence AAAACATA, the binding signal came to 0.28 E-score.

With TCACGAGA, the binding signal is -0.274 E-score.

ACCGCATA: the binding signal was 0.0586 E-score.

For the sequence AGGAATCG, the binding signal turned out to be 0.101 E-score.

With GATGAGCC, the binding signal is -0.152 E-score.

In the case of GAAAGGAA, the binding signal is -0.159 E-score.

Sequence GCGAAACC registered a binding signal of -0.131 E-score.
